{"source": "paper PMC4336329", "about": "(PLoS ONE, 2015)", "note": "In all, about 310,000 compounds went through this assay and about 2,200 (0.71%) showed an effect of 50% or more. Effects have a minus sign here. Some of the results follow.", "data": [{"biological_target": "human ether-à-go-go-related gene (hERG) potassium channel (human, UniProt Q12809)", "sequence (Q12809 whole entry, looked up)": "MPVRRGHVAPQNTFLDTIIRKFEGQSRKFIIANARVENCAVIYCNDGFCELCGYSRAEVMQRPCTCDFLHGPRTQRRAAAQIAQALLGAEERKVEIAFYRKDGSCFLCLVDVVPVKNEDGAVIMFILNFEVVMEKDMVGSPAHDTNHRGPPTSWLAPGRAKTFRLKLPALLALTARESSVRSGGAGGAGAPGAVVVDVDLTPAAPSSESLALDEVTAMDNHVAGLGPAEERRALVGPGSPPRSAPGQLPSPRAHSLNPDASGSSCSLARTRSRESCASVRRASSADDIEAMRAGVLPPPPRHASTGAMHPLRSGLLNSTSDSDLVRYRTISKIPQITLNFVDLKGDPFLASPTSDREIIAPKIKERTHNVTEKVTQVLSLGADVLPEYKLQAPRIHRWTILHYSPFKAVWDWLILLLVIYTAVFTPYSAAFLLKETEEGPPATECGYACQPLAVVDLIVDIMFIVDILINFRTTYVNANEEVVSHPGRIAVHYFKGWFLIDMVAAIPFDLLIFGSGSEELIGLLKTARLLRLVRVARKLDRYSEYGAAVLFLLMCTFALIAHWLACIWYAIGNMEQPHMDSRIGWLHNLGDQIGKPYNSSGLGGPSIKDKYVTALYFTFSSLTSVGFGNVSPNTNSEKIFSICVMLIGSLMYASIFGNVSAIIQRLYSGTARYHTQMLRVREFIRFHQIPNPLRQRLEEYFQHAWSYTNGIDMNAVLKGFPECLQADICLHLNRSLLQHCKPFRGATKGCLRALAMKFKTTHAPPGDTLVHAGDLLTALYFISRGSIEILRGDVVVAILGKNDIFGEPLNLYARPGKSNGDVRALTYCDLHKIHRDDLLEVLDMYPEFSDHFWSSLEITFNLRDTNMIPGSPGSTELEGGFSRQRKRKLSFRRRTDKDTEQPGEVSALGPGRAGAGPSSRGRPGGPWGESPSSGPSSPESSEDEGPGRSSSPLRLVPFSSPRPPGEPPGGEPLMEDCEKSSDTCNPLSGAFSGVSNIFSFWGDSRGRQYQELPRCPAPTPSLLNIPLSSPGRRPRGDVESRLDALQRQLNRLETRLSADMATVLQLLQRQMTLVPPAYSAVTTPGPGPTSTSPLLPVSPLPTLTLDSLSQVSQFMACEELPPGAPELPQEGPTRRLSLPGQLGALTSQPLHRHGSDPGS", "assay": "primary screen, population patch clamp on CHO cells stably expressing hERG", "units": {"hERG current change (%, negative = inhibition) at 1uM": "%"}, "values": [{"compound": "CC1=C(C(=O)OC(C)C)C(c2cccs2)n2ncnc2N1", "note": "(stereo not shown)", "hERG current change (%, negative = inhibition) at 1uM": 7.58}, {"compound": "CC(O)[C@@H](NC(=O)C1CCC(CNC(=O)[C@H](Cc2ccccc2)NC(=O)OC(C)(C)C)CC1)C(=O)O", "note": "(stereo partly shown)", "hERG current change (%, negative = inhibition) at 1uM": 10.3}, {"compound": "CC1CCC(NCC(O)c2ccccc2)CC1", "note": "(stereo not shown)", "hERG current change (%, negative = inhibition) at 1uM": 10.4}, {"compound": "Br.CCCC1CC(CSC(=N)N)OC1=O", "note": "(stereo not shown)", "hERG current change (%, negative = inhibition) at 1uM": 13.4}, {"compound": "CSc1cccc(NC(=O)C(C)NS(=O)(=O)c2ccc(F)cc2)c1", "note": "(stereo not shown)", "hERG current change (%, negative = inhibition) at 1uM": -11.9}, {"compound": "CN(C)S(=O)(=O)c1cccc(NC(=S)Nc2cc(Cl)cc(Cl)c2)c1", "hERG current change (%, negative = inhibition) at 1uM": -6.07}, {"compound": "Cc1cc(C(=O)N/N=C/c2c(C)n(C)c3ccccc23)n[nH]1", "hERG current change (%, negative = inhibition) at 1uM": -2.89}, {"compound": "Cc1ccc2[nH]c(=O)c(CN(CC3COCCO3)C(=O)Nc3ccccc3C)cc2c1", "note": "(stereo not shown)", "hERG current change (%, negative = inhibition) at 1uM": 11.7}, {"compound": "Cc1cc(S(=O)(=O)Nc2ccc(C(=O)NCC(C)(C)N3CCOCC3)cc2)ccc1F", "hERG current change (%, negative = inhibition) at 1uM": 1.64}, {"compound": "CCOC(=O)/C=C1\\SCC(=O)N1CC(=O)NCCOC", "hERG current change (%, negative = inhibition) at 1uM": 5.7}, {"compound": "Cc1nn(C)cc1CNC(=O)c1ccc(F)cc1", "hERG current change (%, negative = inhibition) at 1uM": 10.4}, {"compound": "O=c1c2cc3c(=O)n(CC4CCCO4)c(=O)c3cc2c(=O)n1CC1CCCO1", "note": "(stereo not shown)", "hERG current change (%, negative = inhibition) at 1uM": 3.92}, {"compound": "Cc1cccc(NC(=S)NCCc2ccc(S(N)(=O)=O)cc2)c1C", "hERG current change (%, negative = inhibition) at 1uM": 8.95}, {"compound": "Cc1cccc(Cc2cnc(NC(=O)c3ccc(C)o3)s2)c1", "hERG current change (%, negative = inhibition) at 1uM": -1.73}, {"compound": "CN1C(=O)C(=Cc2ccc(OCC(=O)Nc3ccccc3)cc2)C(=O)N(C)C1=O", "hERG current change (%, negative = inhibition) at 1uM": 15.8}, {"compound": "CCCOc1cc(C)c(S(=O)(=O)NCCOC)cc1C", "hERG current change (%, negative = inhibition) at 1uM": -3.16}, {"compound": "CCN(CC)S(=O)(=O)c1ccc(N2CCOCC2)c(NC(=O)c2ccc(OC)c([N+](=O)[O-])c2)c1", "hERG current change (%, negative = inhibition) at 1uM": 1.2}, {"compound": "S=c1[nH]nc(-c2ccccc2)n1/N=C/c1ccc(Cl)cc1", "hERG current change (%, negative = inhibition) at 1uM": 9.86}, {"compound": "CCOc1cccc(=O)c2c(C)oc(C)c12", "hERG current change (%, negative = inhibition) at 1uM": 7.81}, {"compound": "O=C(NCC1CCCO1)C1CCC(CNS(=O)(=O)c2ccccc2)CC1", "note": "(stereo not shown)", "hERG current change (%, negative = inhibition) at 1uM": 12.6}, {"compound": "O=C(Nc1nc2ccccc2s1)c1cccc(S(=O)(=O)N2CCc3ccccc32)c1", "hERG current change (%, negative = inhibition) at 1uM": -2.8}, {"compound": "CN1CCN(c2ccc(Cl)cc2NC(=O)c2ccc(=O)n(C)n2)CC1", "hERG current change (%, negative = inhibition) at 1uM": -6.56}, {"compound": "C/C=C1\\COC(C(=O)NCc2cccc(OC)c2OC)(C(F)(F)F)C=C1C=C1CCCCC1", "note": "(stereo not shown)", "hERG current change (%, negative = inhibition) at 1uM": 9.99}, {"compound": "O=[N+]([O-])c1cc2c(cc1CN1CCN(CCOCCO)CC1)OCO2", "hERG current change (%, negative = inhibition) at 1uM": 13.4}, {"compound": "N#Cc1ccc(OCC(O)CS(=O)(=O)c2ccccc2)cc1", "note": "(stereo not shown)", "hERG current change (%, negative = inhibition) at 1uM": -0.905}, {"compound": "Cc1csc(C(=O)O)c1-c1c(C)csc1C(=O)O", "hERG current change (%, negative = inhibition) at 1uM": 3.62}, {"compound": "C=CCNc1cnn(-c2ccc(C)cc2)c(=O)c1Sc1ccc(C)cc1", "hERG current change (%, negative = inhibition) at 1uM": 13.8}, {"compound": "Cc1ccc(C(=O)N/C(=C\\c2ccco2)C(=O)NCC2CCCO2)cc1C", "note": "(stereo not shown)", "hERG current change (%, negative = inhibition) at 1uM": 9.11}, {"compound": "O=c1[nH]c(=O)n(Cc2ccccc2)c2nc(-c3ccc(C(F)(F)F)cc3)n(CCO)c12", "hERG current change (%, negative = inhibition) at 1uM": 2.08}, {"compound": "CCCC(=O)Nc1ccc(C(N)=O)cc1", "hERG current change (%, negative = inhibition) at 1uM": 18.9}, {"compound": "CN(C)CCCN(C(=O)c1ccc(S(=O)(=O)N2CCc3ccccc3C2)cc1)c1nc2ccc(F)cc2s1.Cl", "hERG current change (%, negative = inhibition) at 1uM": 10}, {"compound": "CCCCn1c(N)c(N(CCOC)C(=O)CN2CC=C(c3ccccc3)CC2)c(=O)[nH]c1=O", "hERG current change (%, negative = inhibition) at 1uM": 10.3}, {"compound": "CCOC(=O)N1CCN(C(=O)c2oc3ccc(S(=O)(=O)N4CCCCC4)cc3c2C)CC1", "hERG current change (%, negative = inhibition) at 1uM": -8.53}, {"compound": "CC(C)C[C@H](NC(=O)C1CCC(CNC(=O)[C@@H]2CCCN2C(=O)OC(C)(C)C)CC1)C(=O)O", "note": "(stereo partly shown)", "hERG current change (%, negative = inhibition) at 1uM": 6.16}, {"compound": "CC(CC(=O)N1CCN(c2ccc(C(F)(F)F)cn2)CC1)n1ccnc1", "note": "(stereo not shown)", "hERG current change (%, negative = inhibition) at 1uM": -12.7}, {"compound": "c1ccc(CSc2ncnc3c2sc2nc(N4CCOCC4)c4c(c23)CCCC4)cc1", "hERG current change (%, negative = inhibition) at 1uM": 10.8}, {"compound": "Cc1ccnc(N2CCCC(C(=O)NC3CC3)C2)n1", "note": "(stereo not shown)", "hERG current change (%, negative = inhibition) at 1uM": 0.777}, {"compound": "Nc1ccccc1N=Cc1c(O)n(CCC2=CCCCC2)c(=O)[nH]c1=O", "hERG current change (%, negative = inhibition) at 1uM": 10.6}, {"compound": "COc1cc(C(=O)N2CCN=C2c2ccccc2)cc(OC)c1OC", "hERG current change (%, negative = inhibition) at 1uM": 11.9}, {"compound": "N#C/C(=C(/O)Cc1ccccc1)P(=O)(c1ccccc1)c1ccccc1", "hERG current change (%, negative = inhibition) at 1uM": 10.7}, {"compound": "COc1ccc(N2CC(O)=C(c3nc(-c4ccc(F)cc4)cs3)C2=N)cc1OC", "hERG current change (%, negative = inhibition) at 1uM": -0.962}, {"compound": "CCNC(=O)CC1SC(=Nc2cccc(Cl)c2C)N(C)C1=O", "note": "(stereo not shown)", "hERG current change (%, negative = inhibition) at 1uM": 3.18}, {"compound": "C#CCOCCOCCOCCNc1nc(N2CCN(C(=O)[C@H](CCCCN)n3cc(C(N)CO)nn3)CC2)nc(N2CCN(C(=O)[C@H](CCC(=O)O)n3cc(C(N)[C@H](C)CC)nn3)CC2)n1.Cl", "note": "(stereo partly shown)", "hERG current change (%, negative = inhibition) at 1uM": 9.31}]}]}
